About 540 (0.36%) of roughly 150,000 compounds showed an effect of 50% or more. Some of the results follow.

The subject of this experiment is Plasmodium falciparum. In words: Primary screen in NF54 nanoGlo assay, in single point, at 2uM, 72h; a lower Z score goes with more inhibition. Type of experiment: functional, Erythrocyte. Particulars: timepoint 72 hour.
By % Inhibition is commonly meant the change of the read-out against control, counted positive when it falls. As to `CCCN(Cc1csc(COc2cc(C)cc(C)c2C)n1)S(=O)(=O)c1ccc(C)cc1`, the “% Inhibition” value was -4% and the Z score is reported as 0.56.

For `Cc1cc(CNC[C@@H](O)c2ccc(C(F)(F)F)cc2)cc(C)n1`, the “% Inhibition” value amounted to 6% and the Z score is -1.15.

Turning to `CNc1nc(-c2ccc(C(=O)NC3(C(N)=O)CCCC3)cc2)ncc1F`, the “% Inhibition” value is -9% and the Z score turned out to be 0.82.

For the molecule `FC(F)(F)c1cc2c(N3CCC[C@H]3c3cccnc3)nccn2n1`, the “% Inhibition” value is -7% and the Z score is recorded as 0.99.

Take `Cc1cccn2cc(C(=O)N3CCC4(CC3)CNC(=O)C4)cc12`: the “% Inhibition” value is recorded as -2% and the Z score amounted to 0.37.

Regarding `CC(C)[C@H](N)C(=O)N1CCCC(Oc2ccc(Cl)cn2)C1` (stereo partly specified), the “% Inhibition” value is -12% and the Z score was 1.47.

On to `O=C(Nc1ccccc1F)C1CCN(c2cc(C3CC3)ncn2)CC1`, for which the “% Inhibition” value is on record as -16% and the Z score is on record as 3.11.

Consider `CCN(CC)C(=O)c1cc2c(n1C)CCN(Cc1cccc(C)c1)C2`, for which the “% Inhibition” value was -7% and the Z score was 1.26.

Take `Cc1ccc(S(=O)(=O)[C@H]2CS(=O)(=O)C[C@@H]2NCC(C)C)cc1`: the “% Inhibition” value is listed as 4% and the Z score is reported as -0.46.

As for `CC1(C)CN(c2nccc(N3CCN[C@@H]4CS(=O)(=O)C[C@@H]43)n2)CCO1`, the “% Inhibition” value is given as -3% and the Z score worked out at 0.39.

In the case of `Cc1csc([C@@H]2CN(c3cc(C(C)C)nc4ncnn34)CCO2)n1`, the “% Inhibition” value is -1% and the Z score is 0.15.

`C[C@@H](CONS(=O)(=O)c1ccc2ccccc2c1)NC(=O)OC(C)(C)C`: the “% Inhibition” value was -8% and the Z score worked out at 1.41.

With `O=C(CN1CCN(CC(=O)N2CCN(S(=O)(=O)c3ccc(F)c(F)c3)CC2)CC1)N1CCCC1`, the “% Inhibition” value was -10% and the Z score came out at 0.88.

For the molecule `CCN(CCN1CCCCCC1)Cc1cscn1`, the “% Inhibition” value is listed as -14% and the Z score came to 1.99.

Take `Oc1nc(-c2ccc(F)cc2)cc(C(F)F)n1`: the “% Inhibition” value is -13% and the Z score was 2.44.

As to `CC(Cn1cccn1)NC(=O)C1=NN(c2ccccc2)C(C(N)=O)C1` (stereo unspecified), the “% Inhibition” value is -5% and the Z score is given as 0.64.

Consider `COc1ccc(CN(CCc2c[nH]c3ccccc23)C(=O)CN(C(=O)c2ccccc2C)C(C)C)cc1OC`, for which the “% Inhibition” value was -16% and the Z score came to 2.33.

Consider `CCc1ccc(C(C)NC(CC)c2c(C)nn(C)c2C)o1` (stereo unspecified), for which the “% Inhibition” value amounted to 3% and the Z score is reported as -0.39.

`CN(CC(=O)NCCC#N)Cc1ccco1`: the “% Inhibition” value was -8% and the Z score is 1.12.

`Clc1ccsc1CN1CCC[C@H](CN2CCOCC2)C1`: the “% Inhibition” value is recorded as -11% and the Z score was found to be 1.22.

Regarding `Cc1cccnc1C(NCC(=O)N1CC(C)OC(C)C1)C(C)C` (stereo unspecified), the “% Inhibition” value is given as -9% and the Z score was determined as 0.87.

As to `C=CCNC(=O)[C@H]1CCCN(C(=O)Nc2ccc(NC(=O)Nc3ccc(C)cc3C)cc2)C1`, the “% Inhibition” value is on record as -7% and the Z score is on record as 0.95.

As to `CN(C)c1ccc2nnc(CNc3ccc(C(F)(F)F)nn3)n2n1`, the “% Inhibition” value was -8% and the Z score came out at 1.43.

Regarding `Cc1cccnc1[C@H](C)NC(=O)N1CCOCC1`, the “% Inhibition” value is given as -15% and the Z score is reported as 2.76.

As for `COCCOc1ccnc(-c2noc([C@@H]3CCCN3Cc3cn(C)c4ccccc34)n2)c1`, the “% Inhibition” value is 15% and the Z score is -1.75.

In the case of `CN(CCc1cn[nH]c1)c1nc2nonc2nc1N1CCCCC1`, the “% Inhibition” value is on record as -12% and the Z score is 1.37.

Consider `CNC(=O)Nc1cc2c(cc1N1CCCC1)n(C)c(=O)n2C`, for which the “% Inhibition” value is -8% and the Z score amounted to 1.49.

In the case of `Cc1noc(CNC(=O)C2(c3ccc(Cl)c(Cl)c3)CCC2)n1`, the “% Inhibition” value is recorded as 13% and the Z score was -1.66.

As to `Cc1cccc(-n2nc(C)c3c(NC4CCC(NC(=O)C5CCCC5)CC4)nc(C)nc32)c1` (stereo unspecified), the “% Inhibition” value came to 7% and the Z score is on record as -0.98.

As to `COc1nc2c(cc1CNC(=O)c1ccc(=O)[nH]n1)C(=O)N(C1CCCC1)C2`, the “% Inhibition” value worked out at 11% and the Z score is given as -1.46.

Turning to `CN1CCO[C@H](C(=O)Nc2ccccc2Nc2ccncc2)C1`, the “% Inhibition” value was -9% and the Z score is given as 1.72.

Regarding `CCO[C@H]1COC[C@@H]1NC(=O)CN1CCCCC1=O`, the “% Inhibition” value is recorded as -4% and the Z score is given as 0.6.

For the molecule `O=C(c1ccccc1Cn1ccnn1)N1CCC[C@@H]2COC[C@@H]21`, the “% Inhibition” value was -19% and the Z score was determined as 2.02.

For the molecule `Cc1nn(CCc2nnc(-c3cc4nc(C5CC5)cc(C(F)F)n4n3)o2)c(C)c1Br`, the “% Inhibition” value is 28% and the Z score is -3.77.

Turning to `COC(=O)C1(N(C)Cc2cnn(C)c2)CCCCC1`, the “% Inhibition” value was -4% and the Z score is 0.47.

As to `C[C@H](NC(=O)CCCN1CCCC1=O)C(F)(F)F`, the “% Inhibition” value was -23% and the Z score is listed as 1.99.

As to `O=C([C@@H]1CCCCN1S(=O)(=O)c1cc(F)ccc1F)N1CCCC1`, the “% Inhibition” value turned out to be 3% and the Z score is -0.61.

As for `Cn1cc(C(N[C@@H]2C=C[C@H](CO)C2)c2cccc(F)c2)cn1` (stereo partly specified), the “% Inhibition” value is -13% and the Z score was 1.78.

On to `Cc1nc(C=Cc2nc([C@@H]3CCCCCN3)no2)cs1`, for which the “% Inhibition” value stood at 5% and the Z score is reported as -0.51.

For `Cc1cccc(NC(=O)C(=O)N(C)[C@@H](C)CC#N)c1C#N`, the “% Inhibition” value is -12% and the Z score was 1.44.

Consider `O=C(Nc1cccnc1)c1c2c(nc3ccccc13)C(=O)N(C1CCCCC1)C2`, for which the “% Inhibition” value is -7% and the Z score is listed as 0.72.

For the molecule `CC(C)c1nc(CN2CCNC(=O)[C@@H]2Cc2ccccc2)co1`, the “% Inhibition” value is -16% and the Z score is 1.59.

`O=C(NCc1cccnc1-n1ccnc1)c1ccc2[nH]c(=O)[nH]c2n1`: the “% Inhibition” value stood at 0% and the Z score is 0.08.

As for `O=C(CCn1cc(Cl)cn1)N1CCC2(CC1)c1ccccc1C[C@@H]2O`, the “% Inhibition” value was determined as 2% and the Z score is on record as -0.27.

Consider `Cc1ccc(S(=O)(=O)Cc2noc(CC(C)C)n2)c(C)c1`, for which the “% Inhibition” value was -2% and the Z score is 0.21.

As to `CCN1[C@@H]2CCCC[C@@]2(C(=O)NCCC(C)C)CCS1(=O)=O`, the “% Inhibition” value is recorded as -17% and the Z score was determined as 2.01.

`CCC(=O)Nc1nc2ccc(NS(=O)(=O)c3cccc4nsnc34)cc2s1`: the “% Inhibition” value amounted to 29% and the Z score is -4.19.

As for `COCCN(C)C[C@H]1C[C@H](CO)CN(C(=O)c2[nH]nc(-c3ccccc3)c2C)C1`, the “% Inhibition” value is recorded as -1% and the Z score was determined as 0.09.

Take `Cc1ccc2c(c1)[C@@H](NCc1cnn(C)n1)CCC2`: the “% Inhibition” value is listed as 1% and the Z score is -0.16.

With `CN(Cc1ccn(C)n1)C(=O)NCc1noc2ccc(F)cc12`, the “% Inhibition” value worked out at 4% and the Z score is -0.52.

Regarding `OC[C@H]1CCCN(c2nnc(Cc3ccccc3)o2)C1`, the “% Inhibition” value is -3% and the Z score worked out at 0.37.

Take `O=C(CN1CCOCC1)Nc1n[nH]c(Cc2cccc(F)c2)n1`: the “% Inhibition” value is reported as -2% and the Z score is listed as 0.34.

As for `Cc1cc(N2CCOC[C@H]2C(N)=O)nc(C(C)C)n1`, the “% Inhibition” value is -6% and the Z score is recorded as 0.55.

(Values after ChEMBL document CHEMBL4888484, “Replenishing the malaria drug discovery pipeline: Screening and hit evaluation of the MMV Hit Generation Library 1 (HGL1) against asexual blood stage Plasmodium falciparum ,using a nano luciferase reporter read-out” (2022).)
